Results reported in patent US11866502B2, “Anti-FGFR2 antibodies and methods of use thereof” (Regeneron Pharmaceuticals, Inc., priority 2020, dated 2024).

What was measured:
[1] = target: T1, hFGFR2b.mmh (Homo sapiens, UniProt P21802); assay: Biacore surface plasmon resonance binding kinetics to hFGFR2b.mmh; conditions: 25° C.
T1 construct: myc-myc-hexahistidine (MMH) (C); made in house
Experimental: The Biacore sensor surface was derivatized by amine coupling with a monoclonal mouse anti-human Fc antibody (REGN2567 or Jackson Cat. […] Human FGFR2b and Human FGFR2c were prepared in-house expressing a C-terminal myc-myc-hexahistidine tag ([…] NO: 57; […] NO: 58). […] Association of hFGFR2b-MMH or hFGFR2c-MMH to each of the captured ADCs and monoclonal antibodies was monitored for 4 minutes. Subsequently, dissociation was monitored for 10 minutes in HBS-EP running buffer. Anti-human Fc surface was regenerated by a brief injection of 20 mM H3PO4. All binding kinetic experiments were performed at 25° C. […] All sensorgrams were double referenced by subtracting buffer injection sensorgram signal from the corresponding analyte sensorgram, thereby removing artifacts caused by dissociation of the antibody from the capture surface. […] [formula]

[2] = test system: IM-9 cells; assay: In vitro cytotoxicity assay (CellTiter-Glo 2.0), IM-9 cells; type: cell-based, human; conditions: 6 days; for IC50: IM-9 (non-FGFR2 expressing); for Max % Kill: IM-9, up to 20 nM
Experimental: (§1) To test the ability of anti-FGFR2 antibody drug conjugates (ADCs) disclosed herein to kill human cell lines, an in vitro cytotoxicity assay was performed. In vitro cytotoxicity of the anti-FGFR2 ADCs, isotype control ADCs, and reference free payloads were evaluated using the CellTiter-Glo 2.0 Assay Kit (Promega, Cat #G9243), in which the quantity of ATP present is used to determine the number of viable cells in culture. The payloads Maytansinoid 1A, Maytansinoid 1A* (a cell permeable equivalent of Maytansinoid 1A), and Tubulysin 1A were tested as free payloads, and the unconjugated antibodies, including comparator antibodies, were used as controls.
(§2) Five-fold serial dilutions of anti-FGFR2 ADCs or isotype control ADCs were prepared in dilution media (Optimem+0.1% BSA) and added to cells at final concentrations ranging from 20 nM to 0.051 pM (concentrations were corrected for the DAR and are dosed based on the effective payload concentration). Five-fold serial dilutions of free payloads were prepared in 100% DMSO, transferred to fresh dilution media, and then added to the cells at a final constant DMSO concentration of 0.2% and final payload concentrations ranging from 20 nM to 0.051 pM. The last well in each dilution series served as an untreated control and included media alone or media plus 0.2% DMSO and was plotted as a continuation of the 5-fold serial dilution. Six days later, 100 uL of CellTiter Glo 2.0 was added to each well, plates were mixed for 2 minutes on an orbital shaker, and plates were incubated at room temperature for 10 minutes. Relative light units (RLUs) were measured on an Envision luminometer (Perkin Elmer) and cell viability was expressed as a percentage of the untreated (100% viable) cells. IC50 values were determined using a four-parameter logistic equation over a 10-point dose response curve (GraphPad Prism). The maximum % kill was also determined for each test article as follows: 100−minimum percent viability.

[3] = test system: NCI-H716 cells; assay: In vitro cytotoxicity assay (CellTiter-Glo 2.0), NCI-H716 cells; type: cell-based, human; conditions: 6 days; for IC50: NCI-H716 (low FGFR2b, high FGFR2c); for Max % Kill: NCI-H716, up to 20 nM
Experimental: as §1, §2

[4] = test system: NALM-6 cells; assay: In vitro bystander assay, NALM-6 monoculture; type: cell-based; conditions: 5 days
Experimental: as §2, with “The last well in each dilution series served as an untreated control and included media alone or media plus 0.2% DMSO and was plotted as a continuation of the 5-fold serial dilution. Six days later, 100 uL of CellTiter Glo 2.0 was added to each well, plates were mixed for 2 minutes on an orbital shaker, and plates were incubated at room temperature for 10 minutes.” left out
(§3) The ability of the anti-FGFR2 ADCs to induce cytotoxicity in FGFR2 negative cells through release of the payload in FGFR2 positive cells, i.e., bystander activity, was also assessed. […] Cytotoxicity was assessed as described previously for tumor cell lines except that three-fold serial dilutions were performed for all test articles with concentrations ranging from 100 nM to 15.2 pM, and cells were incubated with test articles for 5 days.

[5] = test system: SNU-16 + NALM-6 Cells; assay: In vitro bystander assay, SNU-16 + NALM-6 coculture (1:1); type: cell-based; conditions: SNU-16 + NALM-6 1:1 coculture; 5 days
Experimental: as §2, with “The last well in each dilution series served as an untreated control and included media alone or media plus 0.2% DMSO and was plotted as a continuation of the 5-fold serial dilution. Six days later, 100 uL of CellTiter Glo 2.0 was added to each well, plates were mixed for 2 minutes on an orbital shaker, and plates were incubated at room temperature for 10 minutes.” left out
as §3

[6] = test system: SNU-16 human gastric cancer xenografts; assay: SNU-16 gastric cancer xenograft growth (Example 7); type: in vivo, BALB/c SCID mice; conditions: Experiment B, subcutaneous; for Average % Decrease in Tumor Growth: vs isotype control group; for Average % Tumor Regression: vs tumor volume at start
Experimental: Briefly, 5×10^6 SNU-16 cells (ATCC) mixed with Matrigel (BD Biosciences) were implanted subcutaneously into the flank of male BALB/c SCID mice (6-8 weeks old, Jackson Laboratory). After tumors reached an average volume of 200-250 mm^3, mice were randomized into groups for treatment (n=5-6 mice per group for Experiment A and n=6-7 mice per group for Experiment B). […] Tumor volumes were measured twice per week over the course of the experiment. Averages (mean+/−standard deviation) of the tumor growth (change in tumor volume from the start of treatment through the end of the experiment) were calculated for each treatment group. The percent decrease of tumor growth was calculated from comparison to the isotype control group, and the percent regression of tumors at the end of the experiment was calculated from comparison to the tumor volume at the start of treatment.

[7] = target: T2, hFGFR2c.mmh (Homo sapiens, UniProt P21802); assay: Biacore surface plasmon resonance binding kinetics to hFGFR2c.mmh; conditions: 25° C.
T2 construct: myc-myc-hexahistidine (MMH) (C); made in house
T2 sequence (P21802 with tags, fused parts or gaps): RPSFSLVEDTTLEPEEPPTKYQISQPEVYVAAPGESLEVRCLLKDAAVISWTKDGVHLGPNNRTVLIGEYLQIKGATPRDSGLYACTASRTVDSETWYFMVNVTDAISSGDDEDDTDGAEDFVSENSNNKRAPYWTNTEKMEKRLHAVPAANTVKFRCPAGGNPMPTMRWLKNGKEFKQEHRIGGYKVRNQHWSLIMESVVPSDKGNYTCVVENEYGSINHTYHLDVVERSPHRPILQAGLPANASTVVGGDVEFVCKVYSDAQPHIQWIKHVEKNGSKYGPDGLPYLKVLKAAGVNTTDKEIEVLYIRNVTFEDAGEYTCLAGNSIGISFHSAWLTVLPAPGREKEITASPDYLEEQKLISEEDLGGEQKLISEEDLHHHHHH
Experimental: The equilibrium dissociation constants (KD values) for hFGFR2b.mmh binding to anti-FGFR2 antibodies conjugated with Tubulysin (“tubulysin 1ALP”), Auristatin (“auristatin LP1”), or mc-VC-PAB-NMe-C3-May (“maytansinoid 1ALP”) were determined using a real-time surface plasmon resonance biosensor assay on a Biacore 2000 or a Biacore 4000 instrument. The Biacore sensor surface was derivatized by amine coupling with a monoclonal mouse anti-human Fc antibody (REGN2567 or Jackson Cat. No #109-005-098) to capture anti-FGFR2 ADC and parent unmodified antibodies expressed with human constant regions. Biacore binding studies were performed in HBS-EP running buffer (0.01M HEPES pH 7.4, 0.15M NaCl, 3 mM EDTA, 0.05% v/v Surfactant P20). […] Association of hFGFR2b-MMH or hFGFR2c-MMH to each of the captured ADCs and monoclonal antibodies was monitored for 4 minutes. Subsequently, dissociation was monitored for 10 minutes in HBS-EP running buffer. […] Kinetic association (ka) and dissociation (kd) rate constants were determined by fitting the real-time sensorgrams to a 1:1 binding model using Scrubber 2.0c curve fitting software. […] Binding dissociation equilibrium constants (KD) and dissociative half-lives (t½) were calculated from the kinetic rate constants as: […]

[8] = test system: MFM-223 cells; assay: In vitro cytotoxicity assay (CellTiter-Glo 2.0), MFM-223 cells; type: cell-based, human; conditions: 6 days
Experimental: as §1
(§4) Five-fold serial dilutions of anti-FGFR2 ADCs or isotype control ADCs were prepared in dilution media (Optimem+0.1% BSA) and added to cells at final concentrations ranging from 20 nM to 0.051 pM (concentrations were corrected for the DAR and are dosed based on the effective payload concentration). […] Relative light units (RLUs) were measured on an Envision luminometer (Perkin Elmer) and cell viability was expressed as a percentage of the untreated (100% viable) cells. IC50 values were determined using a four-parameter logistic equation over a 10-point dose response curve (GraphPad Prism). The maximum % kill was also determined for each test article as follows: 100−minimum percent viability.

[9] = test system: SNU-16 cells; assay: In vitro cytotoxicity assay (CellTiter-Glo 2.0), SNU-16 cells; type: cell-based, human; conditions: 6 days
Experimental: as §1, §4

T1 sequence (P21802 with tags, fused parts or gaps isoform P21802-3): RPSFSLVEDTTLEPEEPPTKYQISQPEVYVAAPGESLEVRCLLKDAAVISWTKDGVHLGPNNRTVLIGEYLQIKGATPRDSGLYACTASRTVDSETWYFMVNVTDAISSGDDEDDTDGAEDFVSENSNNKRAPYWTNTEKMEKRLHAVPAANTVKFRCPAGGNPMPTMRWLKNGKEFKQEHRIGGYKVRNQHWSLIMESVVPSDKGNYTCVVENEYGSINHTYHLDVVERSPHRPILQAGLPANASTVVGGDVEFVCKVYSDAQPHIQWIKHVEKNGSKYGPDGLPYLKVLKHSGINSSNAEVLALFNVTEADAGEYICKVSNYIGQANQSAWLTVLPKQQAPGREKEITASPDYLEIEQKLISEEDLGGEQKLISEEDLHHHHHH

B1: mAb2-maytansinoid 1ALP: anti-FGFR2 mAb2 conjugated to maytansinoid 1ALP (mc-VC-PAB-NMe-C3-May) (conjugate)
heavy: QVQLVESGGGVVQPGKSLRLSCAASGFTFSNYGMHWVRQTPVKGLEWVTLIWYDGSNKYYTDSVKGRFTISRDNSKNTLYLQMNSLRSEDTAVYYCAREGNWNYGHAFDIWGQGTMVTVSSASTKGPSVFPLAPCSRSTSESTAALGCLVKDYFPEPVTVSWNSGALTSGVHTFPAVLQSSGLYSLSSVVTVPSSSLGTKTYTCNVDHKPSNTKVDKRV[human IgG4 Fc with S228P (EU numbers) omitted]
light: DIQMTQSPSTLSASVGDRVTITCRASQNIGNWLAWYQQKPGKAPNLLIYKASTLESGVPSRFSGSGSGTEFTLTISSLQPDDFATYNCQQYNSYSPTFGQGTKLEIKRTVAAPSVFIFPPSDEQLKSGTASVVCLLNNFYPREAKVQWKVDNALQSGNSQESVTEQDSKDSTYSLSSTLTLSKADYEKHKVYACEVTHQGLSSPVTKSFNRGEC
modifications: N-methyl
**Q.** B1 was tested. Which “ka” value [1] did it give?
**A.** 68500 M⁻¹ s⁻¹

**Q.** What about the “kd” value [1] of the same molecule?
**A.** 0.000879 s⁻¹

**Q.** And the IC50 [2]?
**A.** > 20 nM

**Q.** And the “Max % Kill” value [2]?
**A.** 9.5%

**Q.** What about the IC50 [3] of the same molecule?
**A.** > 20 nM

**Q.** What about the “Max % Kill” value [3] of the same molecule?
**A.** 17.0%

**Q.** And the “Max % Kill” value [4]?
**A.** 5.0%

**Q.** And the IC50 ([4]; 100 nM to 15.2 pM)?
**A.** > 100 nM

**Q.** What about the IC50 [5] of the same molecule?
**A.** > 100 nM

**Q.** What about the “Tumor growth in mm3 from start of treatment (mean ± SD)” value (“Tumor growth in mm3 … (mean ± SD)” for short) ([6]; 1.0 mg/kg once) of the same molecule?
**A.** 547.6 ± 292.3 mm3

**Q.** And the “Average % Decrease in Tumor Growth” value ([6]; 1.0 mg/kg once)?
**A.** 63.9%

**Q.** What about the “Tumor growth in mm3 … (mean ± SD)” value ([6]; 3.0 mg/kg once) of the same molecule?
**A.** 164.1 ± 245.5 mm3

**Q.** What about the “Average % Decrease in Tumor Growth” value ([6]; 3.0 mg/kg once) of the same molecule?
**A.** 89.2%

**Q.** What about the “Tumor growth in mm3 … (mean ± SD)” value ([6]; 10 mg/kg once) of the same molecule?
**A.** −35.1 ± 102.7 mm3

**Q.** And the “Average % Tumor Regression” value ([6]; 10 mg/kg once)?
**A.** 18.2%

**Q.** And the “Tumor growth in mm3 … (mean ± SD)” value ([6]; 15 mg/kg once)?
**A.** −5.8 ± 145.6 mm3

**Q.** And the “Average % Tumor Regression” value ([6]; 15 mg/kg once)?
**A.** 8.4%

B2: mAb2: anti-FGFR2 antibody; HCVR/LCVR SEQ ID NO: 22/28, HC/LC 36/38; N297Q heavy chain SEQ ID NO: 53 (antibody)
heavy: QVQLVESGGGVVQPGKSLRLSCAASGFTFSNYGMHWVRQTPVKGLEWVTLIWYDGSNKYYTDSVKGRFTISRDNSKNTLYLQMNSLRSEDTAVYYCAREGNWNYGHAFDIWGQGTMVTVSSASTKGPSVFPLAPCSRSTSESTAALGCLVKDYFPEPVTVSWNSGALTSGVHTFPAVLQSSGLYSLSSVVTVPSSSLGTKTYTCNVDHKPSNTKVDKRV[human IgG4 Fc with S228P (EU numbers) omitted]
light: DIQMTQSPSTLSASVGDRVTITCRASQNIGNWLAWYQQKPGKAPNLLIYKASTLESGVPSRFSGSGSGTEFTLTISSLQPDDFATYNCQQYNSYSPTFGQGTKLEIKRTVAAPSVFIFPPSDEQLKSGTASVVCLLNNFYPREAKVQWKVDNALQSGNSQESVTEQDSKDSTYSLSSTLTLSKADYEKHKVYACEVTHQGLSSPVTKSFNRGEC
**Q.** With B2 as the molecule, how does the “ka” value [1] read?
**A.** 50100 M⁻¹ s⁻¹

**Q.** And the “kd” value [1]?
**A.** 0.000447 s⁻¹

**Q.** And the “Antigen Bound (RU)” value ([1]; antibody or ADC captured on anti-human Fc surface)?
**A.** 62.5 RU

**Q.** And the Kd [7]?
**A.** > 30 nM

**Q.** And the “Antigen Bound (RU)” value ([7]; antibody captured on anti-human Fc surface)?
**A.** −1.4 RU

**Q.** What about the IC50 [2] of the same molecule?
**A.** > 20 nM

**Q.** And the “Max % Kill” value [2]?
**A.** 6.4%

**Q.** And the IC50 ([8]; MFM-223 (FGFR2b positive))?
**A.** > 20 nM

**Q.** And the “Max % Kill” value ([8]; MFM-223, up to 20 nM)?
**A.** 4.5%

**Q.** And the IC50 [3]?
**A.** > 20 nM

**Q.** And the “Max % Kill” value [3]?
**A.** 7.8%

**Q.** And the IC50 ([9]; SNU-16 (FGFR2b positive))?
**A.** > 20 nM

**Q.** What about the “Max % Kill” value ([9]; SNU-16, up to 20 nM) of the same molecule?
**A.** 10.3%
